From PubChem BioAssay AID1030 (National Center for Advancing Translational Sciences (NCATS), 2008)
Several values for one entry are separate records, joined by “and”; a condition that tells them apart may be missing. Equal values may be shown once. The campaign covered roughly 220,000 compounds. About 16,000 (7.3%) were called active. The shares of active, inactive and inconclusive entries below differ from those in the screen. The call rests on the fitted dose curve; in most records, active means well fitted inhibition curve with a large enough effect (not every such curve was filed as active); inconclusive means small, poorly fitted or top-dose-only effect, or another doubt; inactive means no such curve, though single readings can be large or run the other way. Potencies of inconclusive entries are doubtful fits and often do not repeat.

Target: Aldehyde dehydrogenase 1A1 (Homo sapiens) (UniProt P00352)
Test: qHTS Assay for Inhibitors of Aldehyde Dehydrogenase 1 (ALDH1A1);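 on activity, negative = inhibition: plate controls were no enzyme wells and a reference inhibitor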
Conditions: Purified ALDH1A1, NADH fluorescence, propionaldehyde substrate; series mostly up to 75.3 µM
Potency means the concentration at half of the fitted maximal effect; tags describe the fitted curve by direction and shape.

Chain of UniProt P00352 (P00352 whole entry, looked up): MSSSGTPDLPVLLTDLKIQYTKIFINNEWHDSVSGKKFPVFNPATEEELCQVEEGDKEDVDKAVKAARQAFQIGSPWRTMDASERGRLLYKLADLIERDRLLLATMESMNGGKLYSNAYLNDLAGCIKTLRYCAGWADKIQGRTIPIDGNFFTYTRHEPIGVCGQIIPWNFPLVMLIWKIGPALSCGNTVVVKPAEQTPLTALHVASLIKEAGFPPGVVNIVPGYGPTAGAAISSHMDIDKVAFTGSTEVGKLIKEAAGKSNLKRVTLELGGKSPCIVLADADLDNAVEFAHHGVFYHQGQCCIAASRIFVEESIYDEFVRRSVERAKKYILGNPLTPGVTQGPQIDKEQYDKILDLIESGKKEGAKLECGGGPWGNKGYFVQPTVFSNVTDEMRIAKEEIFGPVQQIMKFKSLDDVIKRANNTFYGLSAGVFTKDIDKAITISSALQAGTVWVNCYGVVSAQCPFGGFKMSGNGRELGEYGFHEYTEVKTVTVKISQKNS

SMILES	Potency	activity, negative = inhibition
COc1cccc(CNc2ncn[nH]2)c1OCc1ccc(F)cc1	active: 28.2 µM	–
C=CCOC(=O)Nc1c(C(=O)OC)[nH]c2ccc(Cl)cc12	inconclusive: 28.2 µM [inhibitor, partial curve]	–
Cc1[nH]c(=O)[nH]c(=O)c1CSc1nnc(CCCCCNC(=O)OC(C)(C)C)o1	inactive	–
CC(C)=CCN1CCN(Cc2cnc(C)s2)CC1CCO (centres undefined)	inconclusive: 39.8 µM [inhibitor, single point]	–
NC1=NC(c2ccc(Br)cc2)n2c(nc3ccccc32)N1 (centres undefined)	inactive	–
Cc1ccc(C(=O)COC(=O)CCC(=O)Nc2ccccc2Cl)cc1[N+](=O)[O-]	inconclusive: 12.6 µM [inhibitor, partial curve, poor fit]	–
COC(=O)C(CC(=O)c1cccc(OC)c1)c1ccc(F)cc1 (centres undefined)	inactive	–
CCOc1cccc(-c2nnc3sc(COc4ccccc4)nn23)c1	inconclusive: 28.2 µM [inhibitor, single point]	–
CC(C)N(C(=O)COC(=O)CNS(=O)(=O)c1ccccc1F)c1ccccc1	inconclusive: 0.1 µM [inhibitor, full curve, poor fit]	–
FC(F)(F)c1ccccc1-c1cc(NCCN2CCOCC2)ncn1	inconclusive: 39.8 µM [inhibitor, single point]	–
COc1ccc(NC(=O)c2ccc(-c3ccccc3Cl)o2)cc1	inconclusive: 39.8 µM [inhibitor, single point]	–
Cc1ccc(O)c(C(=O)c2cnc3c(c2)COc2ccc(C)cc2-3)c1	inactive	–
Cc1cc(C(=O)CCl)c(C)n1CCc1ccc(F)cc1	active: 0.398 µM	–
c1ccc(N2CCN(c3nc(-c4cccs4)nc4ccccc34)CC2)cc1	inconclusive: 35.5 µM [inhibitor, single point]	–
Cc1ccc(NC(=S)NCc2ccc3[nH]c4c(c3c2)CCCC4)cc1	active: 17.8 µM	–
O=C1CC(c2ccco2)CC2=C1C=Nc1ccccc1N2 (centres undefined)	active: 2 µM	–
COC(CNC(=O)C1CCN(C(=O)c2cc3oc(C)cc3n2Cc2c(F)cccc2Cl)CC1)OC	inconclusive: 35.5 µM [inhibitor, single point]	–
O=C(/C=C/c1ccc(Br)o1)NC(c1ccccc1)c1ccccc1	active: 22.4 µM	–
O=C(NN1CCN(Cc2ccccc2Cl)CC1)c1ccc(Cl)cc1	inconclusive: 44.7 µM [inhibitor, single point]	–
Cc1cccc2sc(NC(=O)Cn3cccc3)nc12	inconclusive: 39.8 µM [inhibitor, single point]	–
CCCn1c(-c2ccc(F)cc2)nc2c(NCCCCN3CCCC3)nc(C)nc21	inconclusive: 23.8 µM [inhibitor, partial curve]	–
N#Cc1c2c(nc(N)c1-c1ccccc1)CCCCC2	inconclusive: 22.4 µM [inhibitor, partial curve]	–
CCCCOC(=O)c1ccc(NC(=O)CSc2nncn2C)cc1	inconclusive: 20 µM [inhibitor, partial curve]	–
Cc1cccc(Oc2cc([N+](=O)[O-])cc3c2C(=O)Nc2ccccc2O3)c1	inactive	–
CCOC(=O)c1[nH]c(C)c(C(=O)N2CCN(c3ccccc3)CC2)c1C	inactive	–

SMILES	Potency	activity, negative = inhibition
OCCN1CCN(CC(O)COCCOc2ccc(Br)cc2)CC1 (centres undefined)	inactive	–
COc1ccc(C(=O)COc2cccc(NC(=O)c3ccco3)c2)cc1	inconclusive: 28.2 µM [inhibitor, single point]	–
Nc1c(C(=O)NCC2CCCO2)sc(=S)n1-c1ccccc1 (centres undefined)	active: 14.1 µM	–
Nc1ccc(-c2nc3ccc([N+](=O)[O-])cc3[nH]2)cc1	inactive	–
O=C(Nc1cccc(Cl)c1)N(Cc1nc2ccccc2c(=O)[nH]1)Cc1cccs1	inactive	–
CC(C)OCCCN1CN(S(=O)(=O)c2ccccc2)c2nc3ccccc3nc21	inconclusive: 39.8 µM [inhibitor, single point]	–
COc1ccc(C2CC(=O)Oc3cc(C)cc(C)c32)cc1 (centres undefined)	inconclusive: 44.7 µM [inhibitor, partial curve]	–
COc1ccc(/C=C2\S/C(=N/S(=O)(=O)c3cccs3)NC2=O)cc1	inconclusive: 17.8 µM [inhibitor, partial curve]	–
CCCn1c(SCC(=O)N2c3ccccc3Sc3ccccc32)nc2ccccc21	inconclusive: 39.8 µM [inhibitor, single point]	–
O=C(Nc1ccccc1Cl)c1cc(S(=O)(=O)N2CCOCC2)cs1	inconclusive: 39.8 µM [inhibitor, single point]	–
CCOC(=O)n1c(=O)oc2ccc(Cl)cc21	inconclusive: 39.8 µM [inhibitor, single point]	–
CCOC(=O)C1CCN(c2ccc(C(=O)O)cc2[N+](=O)[O-])CC1	inactive	–
COc1cc(/C=N/Nc2ccc(F)cc2F)cc(OC)c1OC	inconclusive: 12.6 µM [inhibitor, partial curve]	–
COc1cc(NC(=O)c2cc(-c3cccc(O)c3)on2)cc(OC)c1OC	inconclusive: 39.8 µM [inhibitor, single point]	–
Cc1nn2c(N)csc2nc1=O	inconclusive: 39.8 µM [inhibitor, single point]	–
Cc1ccc(C)c(-n2cc(CN3CCCN(C=O)CC3)c(-c3ccccc3)n2)c1	inactive	–
COc1cccc(C(=O)Nc2cccc(C(C)=O)c2)c1	inconclusive: 39.8 µM [inhibitor, single point]	–
Cc1ccc2cc3cc(C(=O)NCCC(C)C)oc3nc2c1	inconclusive: 17.8 µM [inhibitor, partial curve]	–
COc1cccc(C(=O)Nc2ccc(C3CC3(Cl)Cl)cc2)c1 (centres undefined)	active: 11.2 µM	–
O=C(NCCO)Nc1ccc2nc(-c3ccco3)c(-c3ccco3)nc2c1	inconclusive: 7.08 µM [inhibitor, partial curve]	–
COc1ccccc1CC(=O)Nc1ccc([N+](=O)[O-])cc1OC	inactive	–
O=C(NCCN1CCN(C(=O)c2cccs2)CC1)C(=O)Nc1ccc(Br)cc1	inconclusive: 22.4 µM [inhibitor, single point]	–
CC1(C)C(c2ccccc2)=[N+]([O-])CN1O	active: 7.94 µM	–
CCOC(=O)C1(C)/C(=N/Nc2ccc(Cl)cc2)C(=O)C(=O)N1c1ccccc1 (centres undefined)	inconclusive: 25.1 µM [inhibitor, single point]	–
COC1=C(Nc2ccccc2)C(=O)c2ccccc2C1=O	active: 2.24 µM	–

SMILES	Potency	activity, negative = inhibition
O=C(c1ccco1)N1CCN(C(c2ccccc2Cl)c2nnnn2CC2CCCO2)CC1 (centres undefined)	inconclusive: 39.8 µM [inhibitor, single point]	–
CN1CCC(=NOc2ccc([N+](=O)[O-])cc2)CC1	inactive	–
S=C(NCC1CCCO1)Nc1cc(Cl)c(Cl)cc1Cl (centres undefined)	inactive	–
CCSc1nnc(NC(=O)CSc2nnc(CNC(=O)c3cc(OC)c(OC)c(OC)c3)o2)s1	inconclusive: 39.8 µM [inhibitor, single point]	–
Cc1nnc(SCC(=O)N2N=C(c3ccc(Cl)cc3)CC2c2ccco2)[nH]c1=O (centres undefined)	inconclusive: 22.4 µM [inhibitor, partial curve]	–
COc1ccc(OC)c(N(CC(=O)Nc2ccc3c(c2)OCO3)S(=O)(=O)c2ccccc2)c1	inactive	–
COc1ccc(C2C(C(=O)c3ccccc3)=C(C)Nc3nc4ccccc4n32)c(OC)c1 (centres undefined)	inactive	–
CCOC(=O)C1=C(c2ccccc2)NC(=O)NC1c1ccc(N(C)C)cc1 (centres undefined)	active: 14.1 µM	–
N#Cc1c2c(c(-c3ccccc3Cl)[nH]c1=S)CCCC2	inactive	–
CSc1ccc(S(=O)(=O)Nc2ccc(S(=O)(=O)Nc3ccc(C)cc3)cc2)cc1	active: 8.91 µM	–
Cc1ccc(-c2c[n+](CC(=O)c3ccc(Br)cc3)c3n2CCCCC3)cc1	inconclusive: 15.8 µM [inhibitor, partial curve]	–
CC(C)Nc1nc(Cl)nc(N(C#N)CN2C(=O)c3ccccc3C2=O)n1	inconclusive: 39.8 µM [inhibitor, single point]	–
NC(=O)CSc1nnnn1-c1ccccc1Cl	inconclusive: 25.1 µM [inhibitor, partial curve]	–
Cc1ccc(S(=O)(=O)N2CCC(=O)N(C(COC(=O)Nc3ccccc3)Cc3ccccc3)CC2)cc1 (centres undefined)	inconclusive: 39.8 µM [inhibitor, single point] and inconclusive: 3.55 µM [inhibitor, full curve]	–
Cc1ccc(/C=N/NC(=O)C(C)Oc2ccccc2[N+](=O)[O-])s1 (centres undefined)	inactive	–
O=C(c1ccco1)N1CCn2cccc2C1c1ccccc1 (centres undefined)	active: 1.26 µM	–
Cc1cc(C(=O)OCC(=O)c2cccc([N+](=O)[O-])c2)c2cccc(C)c2n1	active: 22.4 µM	–
O=C(NCc1ccco1)c1csc2c1CCCC2	inconclusive: 44.7 µM [inhibitor, single point]	–
S=c1[nH]nc(Cc2cccc3ccccc23)o1	active: 10 µM	–
N#Cc1ccccc1-c1ccc2ncnc(NCCN3CCOCC3)c2c1	inconclusive: 39.8 µM [inhibitor, single point]	–
CC1(OC(=O)CCc2ccccc2)C(=O)C=C2C=C(c3ccc(C#N)cc3)N(c3ccccc3)C=C2C1=O (centres undefined)	–	inactive: 8.03% [at 13.5 µM]
CC(C)(C)OC(=O)N1CC=C2C(C#N)=C(N)C(C#N)(C#N)[C@H](c3cccnc3)[C@H]2C1	inconclusive: 35.5 µM [inhibitor, single point]	–
CCOC(=O)c1[nH]c2ccc(Br)cc2c1NC(=O)CCN1CCC(C)CC1	active: 11.2 µM	–
CCOc1ccc(CNC(=O)C2CCCN(S(C)(=O)=O)C2)cc1OC (centres undefined)	inactive	–
